SMILES strings stand for the structures. Among all 110,000 compounds or so, about 230 (0.21%) showed an effect of 50% or more. The list shows a part of the results.
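Note: 30 min substrate incubation versus DMSO and 10 µM JCP410 controls.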

The target in this assay is DPAP1 (Plasmodium falciparum, UniProt Q8IIJ9). In words: primary screen, percent inhibition; read by cleavage of a fluorogenic dipeptide substrate; higher = more effect of the substance. The arrangement: species or system P. falciparum D10 trophozoite lysates; single well.
Chain of DPAP1 (Q8IIJ9 whole entry, looked up): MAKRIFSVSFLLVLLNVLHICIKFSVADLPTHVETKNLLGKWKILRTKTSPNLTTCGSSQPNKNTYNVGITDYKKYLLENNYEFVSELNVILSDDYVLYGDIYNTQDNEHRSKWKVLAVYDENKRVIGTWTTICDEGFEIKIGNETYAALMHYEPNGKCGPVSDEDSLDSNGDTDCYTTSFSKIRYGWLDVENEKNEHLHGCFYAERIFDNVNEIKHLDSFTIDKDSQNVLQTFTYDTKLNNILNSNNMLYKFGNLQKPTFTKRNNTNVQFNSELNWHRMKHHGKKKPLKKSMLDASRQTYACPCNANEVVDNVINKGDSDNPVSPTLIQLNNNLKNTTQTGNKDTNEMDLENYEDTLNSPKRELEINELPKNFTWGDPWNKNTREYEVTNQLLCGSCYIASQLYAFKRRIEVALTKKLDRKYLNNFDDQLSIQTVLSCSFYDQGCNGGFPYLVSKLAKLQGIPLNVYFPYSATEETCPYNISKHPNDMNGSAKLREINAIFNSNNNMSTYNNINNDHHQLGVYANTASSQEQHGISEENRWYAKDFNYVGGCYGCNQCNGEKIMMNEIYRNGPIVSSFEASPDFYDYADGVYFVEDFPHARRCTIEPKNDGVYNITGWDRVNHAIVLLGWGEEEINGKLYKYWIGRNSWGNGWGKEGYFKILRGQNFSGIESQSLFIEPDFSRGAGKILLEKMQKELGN
On to `COc1cc(C2CC(=O)NC(SCC(N)=O)=C2C#N)cc(Br)c1O` (centres unmarked), for which the “% Inhibition @ 10 uM” value came to 0.673%. Consider `CC(=O)c1cccc(NC(=O)c2ccccc2C(=O)O)c1`, for which the “% Inhibition @ 10 uM” value is -0.795%. With `COc1cccc(/C=C/c2ccnc(NS(=O)(=O)c3ccc(N)cc3)n2)c1`, the “% Inhibition @ 10 uM” value was -1.29%. To `Cc1cccc(OCCCCCN2CCCCC2)c1` belongs -2.28%; to `CC(=O)/C=C1\NC(C)(C)Cc2ccccc21`, 5.2%. On to `CCCCOC(=O)C1=C(C)NC(=O)NC1c1ccc(Cl)cc1` (centres unmarked), for which the “% Inhibition @ 10 uM” value is reported as 0.162%. On to `COc1cc(CNc2ccc(F)cc2)cc(Cl)c1OCC(=O)NC(C)(C)C`, for which the “% Inhibition @ 10 uM” value is -1.82%.

For the compound `CCc1ccccc1NC(=O)c1cc2nc(C(F)F)cc(C(F)F)n2n1`, the “% Inhibition @ 10 uM” value is listed as -1.36%. To `COc1ccc(C(=O)Nc2ccccc2C(=O)O)cc1OC` belongs 3.32%; to `Cc1cc(C(F)(F)F)nn1CC(=O)Nc1sc2c(c1C(N)=O)CCCCC2`, 54.5%.

Regarding `COc1ccc(CCNC(=O)c2cc3c(O)nc4ccccc4c3s2)cc1OC`, the “% Inhibition @ 10 uM” value stood at 7.59%. To `CC(C)(C)C(=O)Nc1ccccc1C(=O)Nc1cccnc1` belongs -3.09%. Next, `Cc1ccc(S(=O)(=O)N2CCC(C(=O)NC3CCc4ccccc43)CC2)cc1` (centres unmarked): 2.29%. `COc1ccc(CN2CCN(Cc3cc(OC)ccc3O)CC2)cc1`: the “% Inhibition @ 10 uM” value is -1.6%. Next, `O=C(CN(Cc1ccc(Br)cc1)S(=O)(=O)c1ccccc1)Nc1ccccc1F`: -4.43%; `S=C(NC12CC3CC(CC(C3)C1)C2)N1CCOCC1`: 1.54%; `O=C(c1ccc(Cn2cc(Br)cn2)cc1)N1CCN(c2ccccc2)CC1`: 1.27%.

In the case of `Cc1ccc2occ(CC(=O)N(Cc3cccs3)C3CCS(=O)(=O)C3)c2c1` (centres unmarked), the “% Inhibition @ 10 uM” value turned out to be 4.18%.

With `CSc1ccc(CCNC(=O)CCCn2ccc3cc(S(=O)(=O)N4CCCC4)ccc32)cc1`, the “% Inhibition @ 10 uM” value was -2.68%. To `Cc1nnc(N2CCC(C(=O)NC(C)c3ccccc3)CC2)c2nn(-c3ccc(Cl)cc3)c(C)c12` (centres unmarked) belongs -4.18%. To `Nc1[nH]ncc1-c1ccc(F)cc1` belongs -4.74%; to `CCCCOc1ccc(C(=O)Nc2ccc(CN3CCOCC3)cc2)cc1`, 4.03%. Next, `COC(=O)c1ccc2c(c1)sc1nc(-c3ccc(Br)cc3)cn12`: 3.39%. Consider `Cc1cc(C)nc(NS(=O)(=O)c2ccc(N/C=C\C(=O)c3ccc4ccccc4c3)cc2)n1`, for which the “% Inhibition @ 10 uM” value was determined as 0.317%. Next, `COC(=O)C1=C(O)/C(=C\c2ccc(C)cc2)N=C1C`: 3.57%; `Brc1ccc(N2COc3ccc4ccccc4c3C2)cc1`: 1.64%.

As to `Cc1sc2nc(SCC(=O)N3CCOCC3)n(-c3ccc(F)cc3)c(=O)c2c1C`, the “% Inhibition @ 10 uM” value is given as 2.46%.

As to `CS(=O)(=O)N(CC(=O)N1CCN(c2ccccc2)CC1)C1CCCCC1`, the “% Inhibition @ 10 uM” value is -2.32%.

In the case of `Cc1nnc(N2CCCC(C(=O)N3CCN(C)CC3)C2)c2nn(-c3ccccc3)c(C)c12` (centres unmarked), the “% Inhibition @ 10 uM” value was -0.696%. On to `Cc1c(CC(=O)NCCc2ccccc2F)c(=O)oc2cc(O)ccc12`, for which the “% Inhibition @ 10 uM” value is on record as -2.57%. For the compound `Clc1ccc(-c2noc(-c3ccc(-c4ccccc4)cc3)n2)cc1`, the “% Inhibition @ 10 uM” value was 1.08%. To `CCOC(=O)C1=CN(Cc2ccc(OC)cc2)C=C(C(=O)OCC)C1c1cc(OC)ccc1OC` belongs 0.219%; to `COc1ccccc1C(=O)Nc1ccccc1C(=O)NC(C)c1ccccc1` (centres unmarked), -3.92%; to `Cc1cccc(C(C2=C(O)CCCC2=O)C2=C(O)CCCC2=O)c1`, -4.62%. Regarding `COc1ccc(C(=O)NCc2c(CC(C)C)oc(C)c2C(=O)O)cc1`, the “% Inhibition @ 10 uM” value was -0.403%. Next, `CC(CNC(=O)c1cccs1)OC12CC3CC(CC(C3)C1)C2` (centres unmarked): 0.9%. For the compound `CCOC(=O)C1=C(NC(=O)c2ccc(C)cc2)S/C(=C\c2ccc(OCC)cc2OCC)C1=O`, the “% Inhibition @ 10 uM” value came to 6.28%. Next, `CC1CCC(NCC(C)(C)CN(C)C)CC1` (centres unmarked): -0.303%.

As for `Cc1cc(C)c(C#N)c(SCC(=O)Nc2ccc(Cl)c(Cl)c2)n1`, the “% Inhibition @ 10 uM” value is recorded as -0.736%. To `CCC(=O)Nc1ccc(S(=O)(=O)Nc2ccc(C)cc2C)cc1` belongs -4.52%; to `COc1ccc(-c2noc(CSc3nnc(C)n3-c3cccc(C)c3)n2)cc1OC`, 2.89%; to `CCC(C)NC(=O)c1oc2ccc3c(c2c1C)C(=O)CC1(CCCC1)O3` (centres unmarked), 3.87%.

As to `CCc1ccc(Oc2nc3c(C)cccn3c(=O)c2/C=C(\C#N)C(=O)NCCOC)cc1`, the “% Inhibition @ 10 uM” value is on record as 3.63%. Regarding `CCOC(=O)c1c(NC(=O)CCc2ccc(CC)o2)sc(C)c1C`, the “% Inhibition @ 10 uM” value is 9.61%.

As to `COCCN1C(=O)C(O)=C(C(=O)c2ccc3c(c2)CC(C)O3)C1c1cccc(OC)c1` (centres unmarked), the “% Inhibition @ 10 uM” value worked out at 2.79%.

As for `CCOc1ccccc1CNC(=O)c1ccc(CS(=O)c2ccccc2C)o1` (centres unmarked), the “% Inhibition @ 10 uM” value was determined as 3.36%. Next, `CC(C)NC(=O)c1c(NC(=O)c2cccs2)sc2c1CCCC2`: 0.392%; `C/C=C/C(=O)Nc1ccc(NC(C)=O)cc1`: -1.86%; `CCN1C(=O)/C(=C/c2cccs2)S/C1=N/c1ccc(OC)cc1`: -9.45%. To `Cc1cccc(CCNc2cnn(C34CC5CC(CC(C5)C3)C4)c(=O)c2Cl)c1` belongs 1.89%; to `COC(=O)NCCc1cc(OC)c(OC)cc1S(=O)(=O)N1CCOCC1`, 3.68%; to `O=C(O)C1Nc2ccc(F)cc2C2C=CCC12` (centres unmarked), 4.26%. To `CCc1ccc(/C=C2/C(=O)NC(=O)N(c3ccc(OC)cc3)C2=O)cc1` belongs 4.65%; to `Cc1ccc(NS(=O)(=O)c2cc(Cl)ccc2Cl)cc1C`, -3.44%. Take `COc1ccc(OC)c(NC(=O)c2ccc(C(F)(F)F)cc2)c1`: the “% Inhibition @ 10 uM” value is on record as -4.66%.

Turning to `Cc1cccc(NC(=O)CN(c2cccc(Cl)c2C)S(C)(=O)=O)c1`, the “% Inhibition @ 10 uM” value is reported as -3.63%. In the case of `COc1ccc(CCNCc2cccn2-c2c(C(=O)O)cnn2-c2ccccc2)c(OC)c1`, the “% Inhibition @ 10 uM” value was determined as 1.63%. Next, `Cc1ccccc1OCC(=O)Nc1ccc(F)cc1`: 0.247%; `CC(=O)Nc1cccc(NC(=O)c2ccc(N(C)C)cc2)c1`: -3.92%; `CSCCCN1CCN(CCO)CC1`: 0.472%. Take `COc1ccc(/C=C/C(=O)c2ccc3ccccc3c2O)cc1CN1CCOCC1`: the “% Inhibition @ 10 uM” value was -3.74%. With `COCC/N=c1/c(-c2ccc(C)cc2)c(O)c1=O`, the “% Inhibition @ 10 uM” value was -1.15%. To `COc1ccc(Nc2ccc(C(F)(F)F)cc2[N+](=O)[O-])cc1` belongs -0.192%; to `Cc1ccccc1Cn1ccc(NC(=O)c2nc3ncccn3n2)n1`, 1.72%. Regarding `Cc1cc(-c2ccc(C)c(S(=O)(=O)N(C)Cc3ccco3)c2)on1`, the “% Inhibition @ 10 uM” value is recorded as -0.795%. Consider `CCN(CC)CCCNCc1ccc(F)cc1Cl`, for which the “% Inhibition @ 10 uM” value is listed as -1.34%. To `CNC(=O)C1=C(C)Nc2nc3ccccc3n2C1c1ccc(F)cc1` (centres unmarked) belongs 2.5%.

With `CC(C)C(NS(=O)(=O)c1ccc(Br)s1)C(=O)O` (centres unmarked), the “% Inhibition @ 10 uM” value is given as -0.458%. Next, `O=C(c1ccco1)n1nc(-c2ccccc2)nc1NCc1ccccc1`: 5.5%.

With `O=C1C(=Cc2ccco2)C(=O)N(c2ccccc2)C(=S)N1c1ccccc1`, the “% Inhibition @ 10 uM” value is on record as -5.94%.

Turning to `COc1ccccc1CCNC1CCC(C(C)(C)C)CC1` (centres unmarked), the “% Inhibition @ 10 uM” value is -3.8%.

Turning to `O=P(O)(CN1CCOCC1)C1Cc2ccccc2C1`, the “% Inhibition @ 10 uM” value is given as -5.38%. Next, `COCC(C)NCc1cc(Br)ccc1OC` (centres unmarked): -5.16%; `CCC(C)N(CCCNC(=O)Cn1nc(Cc2cccnc2)c2ccccc2c1=O)Cc1ccco1` (centres unmarked): -2.16%; `CC(C)(C)C(=O)NCCc1nc2ccccc2n1Cc1ccccc1F`: -0.58%.

Take `COc1ccc(CNc2nc(-c3ccco3)nn2C(=O)C(C)C)cc1`: the “% Inhibition @ 10 uM” value is given as -1.47%. To `COc1ccc(CCCC(=O)Nc2cc(Cl)ccc2OC)cc1` belongs -4.48%. Turning to `O=C(Nc1nc(-c2ccccc2)cs1)c1sc2cc(F)ccc2c1Cl`, the “% Inhibition @ 10 uM” value is reported as 0.986%. To `O=C(c1cc2c(s1)-c1ccccc1S(=O)(=O)C2)N1CCN(C2CCCCC2)CC1` belongs -4.23%; to `CC(C)CCN1CC(C(=O)NCc2ccccc2Cl)CC1=O` (centres unmarked), 0.514%; to `O=C(Cc1c(C(=O)O)[nH]c2ccc(Cl)cc12)NCC1(c2ccccc2)CCCC1`, 22.6%. For `Cc1coc2c1c(C)cc1oc(=O)c(CC(=O)NCc3ccccc3)c(C)c12`, the “% Inhibition @ 10 uM” value turned out to be 7.17%. To `Cc1nc2ncnn2c(C)c1CCC(=O)NCCC(C)C` belongs 1.26%; to `O=C(NCCCc1nc2ccccc2n1CCOc1ccccc1)c1ccco1`, -2.99%; to `CN1C(=O)CCC1(C(=O)O)c1ccccc1` (centres unmarked), 0.0538%. Consider `Cc1c(C(c2ccccc2)c2c(C)n(C)n(-c3ccccc3)c2=O)c(=O)n(-c2ccccc2)n1C`, for which the “% Inhibition @ 10 uM” value was -6.52%. To `Cc1ccc(CNC(=O)CN(C)S(=O)(=O)c2ccc(F)cc2)cc1` belongs 4.75%; to `Cc1nnc(NCCC(C)C)c2c1nnn2Cc1ccccc1Cl`, 0.00706%. Consider `COc1ccccc1/C=C(/NC(=O)c1ccccc1Cl)C(=O)N1CCOCC1`, for which the “% Inhibition @ 10 uM” value came to 4.01%. As to `COc1ccc(CN2CCN(c3cccc(Cl)c3)CC2)cc1OC`, the “% Inhibition @ 10 uM” value turned out to be 2.92%. Next, `CCc1ccc(CNC(=O)C2CCN(c3nc4ccccc4o3)CC2)cc1`: 2.05%; `CCc1cc(-c2[nH]nc(C)c2-c2ccc3c(c2)OCCO3)c(O)cc1OC`: 3.93%. To `Cc1ccc(NC(=O)COc2ccc(C#N)cc2)c(Br)c1` belongs -2.29%.

Turning to `Cc1nc2c(c(C)c1CCC(=O)N1CC(C)CC(C)C1)c(=O)n(C)c(=O)n2C` (centres unmarked), the “% Inhibition @ 10 uM” value is 3.75%. Next, `CCOC(=O)c1cc(-c2ccc(OC)c(S(=O)(=O)NC3CCCCCC3)c2)on1`: -1.19%. Next, `Cc1ccc(/C=C2\N=C(c3ccc(Cl)cc3Cl)OC2=O)o1`: 2.81%; `O=C(NCC(O)c1ccccc1)c1ccccc1` (centres unmarked): 5.53%; `CNCc1cc2ccccc2o1`: -2.36%. Next, `O=C(c1ccc(C(F)(F)F)cc1)N1CCOCC1`: -8.85%; `O=C(Nc1ccc(Br)cc1)[C@@H]1C2C=CC(C2)[C@@H]1C(=O)O` (some centres unmarked): -7.42%; `Cc1sc2ncn(CC(=O)NCCCC(=O)NCCCN3CCOCC3)c(=O)c2c1C`: 6.64%.

For the origin of these results see publication PMC6919601, “Identification of Plasmodium dipeptidyl aminopeptidase allosteric inhibitors by high throughput screening” (PLoS ONE, 2019).
